The record followed here is article PMC2064240 (The Journal of Cell Biology, 2006).

The target in the assay is T1, GST-SV343-571 (bovine, UniProt O46385-2 343-571).
T1 sequence (looked up): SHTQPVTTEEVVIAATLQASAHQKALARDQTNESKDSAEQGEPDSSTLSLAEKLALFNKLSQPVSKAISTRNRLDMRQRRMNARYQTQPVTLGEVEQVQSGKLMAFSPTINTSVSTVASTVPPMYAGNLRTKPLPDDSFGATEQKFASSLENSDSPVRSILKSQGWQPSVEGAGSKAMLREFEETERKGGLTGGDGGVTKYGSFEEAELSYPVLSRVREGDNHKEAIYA
Briefly: pull-down.

B1: 6×His-tagged, full-length Tctex-1 (natural protein)
chain: not shown
As for B1, the binding result is “binds”.
